Z-score data for 109 compounds are collected here from PubChem BioAssay AID488969 (Vanderbilt High Throughput Screening Facility, 2010).

In all, about 110,000 compounds were measured (“z-score”: median about -0.1, highest 2% from about 2 on). The list shows a part of the results. Activity calls are given as the source filed them.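 How the source made its calls: active means z-score in the third read window above 3 or below -3; inactive means the rest.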

The target in this experiment is Metabotropic glutamate receptor 8 (Rattus norvegicus) (UniProt P70579). As to the kind of experiment: rat mGluR8 modulators via GIRK flux, primary screen, cell-based, thallium flux, HTS (AID 488969). The conditions noted are these: HEK293 rat mGluR8, GIRK (G protein-gated inwardly rectifying potassium channel) thallium flux, FluoZin2; at 10 µM; stronger effect = higher value; submaximal glutamate (EC20) added with thallium.
Chain of UniProt P70579 (P70579 whole entry, looked up): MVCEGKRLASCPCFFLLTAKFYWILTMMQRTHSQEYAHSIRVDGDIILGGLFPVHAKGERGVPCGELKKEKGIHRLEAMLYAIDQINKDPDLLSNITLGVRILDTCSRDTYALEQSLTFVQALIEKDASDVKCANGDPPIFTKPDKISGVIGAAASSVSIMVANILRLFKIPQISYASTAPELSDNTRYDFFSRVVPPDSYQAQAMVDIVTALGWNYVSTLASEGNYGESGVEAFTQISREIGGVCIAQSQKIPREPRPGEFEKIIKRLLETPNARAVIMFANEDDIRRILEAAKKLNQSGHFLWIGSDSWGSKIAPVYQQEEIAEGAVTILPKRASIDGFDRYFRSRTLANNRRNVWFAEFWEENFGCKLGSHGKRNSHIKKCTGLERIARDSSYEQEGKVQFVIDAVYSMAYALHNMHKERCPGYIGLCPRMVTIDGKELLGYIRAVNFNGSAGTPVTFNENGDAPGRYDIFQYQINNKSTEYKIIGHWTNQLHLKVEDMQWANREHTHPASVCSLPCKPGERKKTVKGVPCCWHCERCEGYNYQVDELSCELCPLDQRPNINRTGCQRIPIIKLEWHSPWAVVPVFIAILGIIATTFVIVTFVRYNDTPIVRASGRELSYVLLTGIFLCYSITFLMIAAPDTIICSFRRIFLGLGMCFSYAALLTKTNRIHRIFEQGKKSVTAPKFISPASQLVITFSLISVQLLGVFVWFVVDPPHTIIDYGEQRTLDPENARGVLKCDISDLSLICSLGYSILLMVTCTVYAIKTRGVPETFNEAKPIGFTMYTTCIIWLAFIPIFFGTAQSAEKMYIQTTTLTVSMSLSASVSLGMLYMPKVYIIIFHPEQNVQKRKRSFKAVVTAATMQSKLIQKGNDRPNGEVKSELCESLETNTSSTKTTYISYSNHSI
Take `CC(C)CN1C(=O)/C(=C/c2cccs2)NC1=S`: the z-score is active: 15.8. In turn, `CN1CC(c2ccccc2Cl)C2(COc3ccccc3C2=O)C12C(=O)Nc1ccccc12` (centres undefined) gave a z-score of -0.111. As for `COc1ccc(OCC(=O)Nc2ccccc2OC(F)F)cc1`, the z-score was determined as 2.69.

Compound `CC(=O)c1cc(-c2ccccc2)n(CCC(=O)NCc2cccs2)c1C` displayed a z-score of 1.1. As for `Cc1ccc(O)c(CP(=O)(c2ccccc2)c2ccccc2)c1`, the z-score was -0.324. In the case of `Cc1cc(C)nc(NS(=O)(=O)c2ccc(N=Cc3c(C)[nH]n(-c4ccccc4)c3=O)cc2)n1`, the z-score was -0.205.

Take `CN(C)S(=O)(=O)N1CCC(c2ccc(F)cc2)C(COc2ccc3c(c2)OCO3)C1` (centres undefined): the z-score was 0.15. Then `CC1=C(C(=O)N2CCOCC2)C(c2ccsc2)C2=C(CCCC2=O)N1` (centres undefined), with 0.844; and `COc1ccccc1NC(=O)Cc1nn(C)c(=O)c2ccccc12`, with -0.677. The value for `Cn1c2ccccc2c2c(C(=O)N3CCN(c4ccc(F)cc4)CC3)cn(C3CCCC3)c(=O)c21` was -0.225. Then `COC(=O)c1cccc(S(=O)(=O)N2CCCC2)c1`, with -0.113; and `COc1ccc(/C(O)=C2/C(=O)C(=O)N(CCN(C)C)C2c2ccccc2)cc1Cl` (centres undefined), with -0.968. Turning to `Cc1cc(C)n(CC(=O)N2c3ccccc3Sc3ccccc32)n1`, the z-score was -0.397. Then `C=CCNC(=S)N/N=C/c1ccc(OCc2ccccc2Cl)cc1`, with -0.2; and `CSc1ccc(CN(C)CC(=O)Nc2ccc(C)cc2Br)cc1`, with -0.173; and `O=C(C1CCN(Cc2ccc(F)cc2)CC1)N(CCc1ccccc1)Cc1ccccc1`, with 0.621. `Cn1c(=O)n(C)c2cc([N+](=O)[O-])c(N3CCN(S(=O)(=O)c4ccc(C(C)(C)C)cc4)CC3)cc21` showed a z-score of 1.56. The value for `CN=CC1=C(O)c2ccccc2C1=O` was -0.357. On to `CC(C)(C)c1nnc(NC(=O)Cc2ccccc2[N+](=O)[O-])s1`, for which the z-score is -0.224. `Cc1nc2ccc(NC(=O)NCCCO)cc2s1` registered a z-score of 0.21. `CCOc1ccc(C(=O)/C=C/c2ccc(SC)cc2)cc1` yielded a z-score of -0.132. Then `CCC(C)Oc1cccc(OCCCCN2C(=O)NC(C)(C)C2=O)c1` (centres undefined), with 0.0393; and `CCOC(=O)c1ccc2ncc(C(=O)OCC)c(NCCN(C)C)c2c1`, with -0.571. Then `CCOc1ccc(NC(=O)NCCCn2c(C)nc3cc(C)c(C)cc32)cc1`, with -0.139; and `COc1ccc(C(C(=O)NC2CCCC2)N(CCN2CCOCC2)C(=O)c2ccc(OC)c(OC)c2)cc1` (centres undefined), with 0.141; and `COC(=O)c1cc(S(=O)(=O)N2CCOCC2)c(Cl)cc1N1CCOCC1`, with 0.00512. `COc1ccc(O/C(=N\S(=O)(=O)c2ccccc2)c2ccccc2)cc1` came in with a z-score of -0.216. Turning to `N/C(=N\OC(=O)CCc1ccccc1)c1ccc(Br)cc1`, the z-score was found to be 0.12. Compound `CC(C)(C)c1ccc(OCCNC(=O)c2ncn[nH]2)cc1` registered a z-score of -0.379. Consider `COc1ccc(C)c(S(=O)(=O)Nc2ccc(OCC(=O)O)cc2)c1`, for which the z-score was determined as 0.2. Then `COc1ccc([N+](=O)[O-])cc1NC(=O)c1ccc(N(Cc2ccccc2C)S(C)(=O)=O)cc1`, with -0.0462; and `CCOC(=O)N1CCN(Cc2nc(-c3ccc(Cl)cc3)no2)CC1`, with -0.222; and `CCc1ccc2c(c1)cc(CN(C(=S)Nc1ccccc1)C1CC1)c1nnnn12`, with -0.065. Take `CCCOc1ccc(C(=O)CCNc2ccc(C)c(Cl)c2)cc1`: the z-score was 0.145.

`CCc1nc(SCC(=O)c2ccc(Cl)s2)c2oc3ccccc3c2n1` showed a z-score of -0.385.

In turn, `COc1cc(/C=N/NC(=O)CNC(=O)c2ccccc2)ccc1OC(=O)c1cccs1` yielded a z-score of -0.346. The value for `CCCCC12CN3CCN(CC(C3)/C1=N\NC(=O)c1ccccc1N)C2` was -0.264. With `Cc1ccccc1N1C(=O)N(c2cccc(C(F)(F)F)c2)C2CS(=O)(=O)CC21` (centres undefined), the z-score is -0.217. As to `COc1cccc(C2C(C(=O)c3cccs3)=C(O)C(=O)N2CCN(C)C)c1OC` (centres undefined), the z-score was -0.283. `COc1cc(C2C3C(C)N(C)C(=O)N(C)C3N(C)C(=O)N2C)ccc1O` (centres undefined): the z-score was determined as 0.84. The value for `CCCCN(C)Cc1c(O)ccc2c(-c3ccccc3)cc(=O)oc12` was -0.434; that for `O=C1Nc2ccc(Br)cc2C1(O)Cc1ccncc1` (centres undefined) was -0.201; that for `CCc1nnc(NC(=O)CCc2ccc(C)o2)s1` was 0.332. Regarding `Cc1cccc(/N=C/c2c(O)[nH]c3ccccc23)n1`, the z-score was -0.0825.

As for `CCCC(=O)NC(=S)Nc1sc2c(c1C(N)=O)CCC2`, the z-score was -0.327. The value for `COc1ccc(N=NC2=C(O)CC(C)(C)CC2=O)cc1` was -0.0779; that for `Cc1cccc(Nc2nc(NCCCN3CCOCC3)nc(N)c2[N+](=O)[O-])c1` was -0.234; that for `COc1ccc(Nc2nc(=O)[nH]nc2C)cc1` was 0.11. `O=S(=O)(/C=C/c1ccccc1)N1CCN(c2ccc(F)cc2)CC1` displayed a z-score of -0.241. In the case of `COc1cc(NC(=O)CN2C(=O)NC(C)(c3ccccc3)C2=O)c(C)cc1[N+](=O)[O-]` (centres undefined), the z-score is 1.12.

`CCOC(=O)c1c(NC(C)=O)sc2c(O)c(Br)cc(Br)c12` returned a z-score of -0.567. The compound `O=C1CC(c2ccccc2)CN1Cc1ccccc1` (centres undefined) had a z-score of 0.791.

With `CCN(CC)c1ccc(NC(=O)CSc2nc3ccccc3c(=O)[nH]2)cc1`, the z-score was -0.106.

On to `CCC1c2ccc(C)n2CCN1C(=O)Nc1ccccc1OC` (centres undefined), for which the z-score was -1.35. Then `COc1cc2c(cc1O)CCN(C(=O)c1ccco1)C2C` (centres undefined), with 0.122; and `Cc1c(NC(=O)c2ccc(N3CCCC3)c([N+](=O)[O-])c2)cccc1-c1nc2ccccc2s1`, with -0.013.

Compound `CCOc1cc(NC(=O)c2ccccc2[N+](=O)[O-])c(OCC)cc1NC(=O)CC(C)C` gave a z-score of -0.494. The value for `COc1cc(NS(=O)(=O)c2ccc(NC(=O)COc3ccccc3Cl)cc2)nc(OC)n1` was 0.192; that for `CC1=NC(=O)C(N=Nc2cccc3ccccc23)N1c1ccccc1` (centres undefined) was 0.878.

The compound `Cc1c(N=Cc2c(O)n(C3CCCCC3)c(=O)[nH]c2=O)c(=O)n(-c2ccccc2)n1C` had a z-score of -0.658. In turn, `O=C(CCl)NC(=O)NC12CC3CC(CC(C3)C1)C2` registered a z-score of -0.184.

`CCC1Nc2ccccc2-c2nnc(SC)nc2O1` (centres undefined) registered a z-score of -0.245. The value for `CCCN(CC(=O)c1cc(C)n(C)c1C)S(=O)(=O)c1cccc(C(F)(F)F)c1` was -0.232. The value for `CCOC(=O)C1CCN(Cc2cnc(Oc3ccc(OC)cc3)s2)CC1` was -0.0583; that for `CCn1c(C)nc2cc(S(=O)(=O)C(F)F)ccc21` was -0.152; that for `COc1ccc(C(C(=O)NC2CCCC2)N(Cc2ccc(F)cc2)C(=O)c2ccn[nH]2)cc1OC` (centres undefined) was 0.0155. Consider `COC(=O)N/N=C(\C)c1ccccc1Br`, for which the z-score was -0.0179.

With `Cc1cccc(C)c1NC(=S)NC(C)CCc1ccccc1` (centres undefined), the z-score amounted to 0.107.

`Cc1ccc(-c2cc(C(=O)O)n[nH]2)o1` gave a z-score of -0.0668. Then `CCOC(=O)/C(=C\c1ccc([N+](=O)[O-])o1)NC(=O)c1ccccc1`, with -0.483; and `Cc1cc(NS(=O)(=O)c2ccc(NC(=O)CSc3nnc(-c4ccco4)n3C)cc2)nc(C)n1`, with 0.225. `Cc1ccc(CS(=O)(=O)CCC(=O)NCCN(C)Cc2ccccc2)cc1` came in with a z-score of -0.171. The value for `Cc1cc(NC(=O)c2cc(S(=O)(=O)N3CCCCC3)ccc2C)n(-c2ccccn2)n1` was -0.277.

`C=CCn1c(SCc2nc(N)nc(N(C)C)n2)nnc1-c1cccnc1`: the z-score is -0.0663. In the case of `Cc1ccc(CSc2ncnc3c2cnn3-c2ccccc2)cc1`, the z-score was 0.333. Then `CS(=O)(=O)N(CC(=O)Nc1ccc2c(c1)OCO2)Cc1ccccc1`, with 0.302; and `CCOc1cc(NC(=S)Nc2ccccc2)c(OCC)cc1NC(=O)c1ccc(OC)cc1`, with -0.0189.

In turn, `COCCn1nnnc1CN(CCc1ccccc1)Cc1cc2ccc(C)cc2[nH]c1=O` had a z-score of -0.49. `Cc1nnsc1C(=O)Nc1ccccc1` gave a z-score of -0.129. The value for `Cc1onc(-c2ccccc2)c1C(=O)N/N=C(\N)COc1ccc(Cl)cc1` was -0.0322; that for `COc1ccc(CCCc2nnc(SCC(=O)Nc3nccs3)n2C)cc1C` was -0.262. In turn, `O=C(Nc1ccc(F)cc1)c1oc2ccccc2c1NC(=O)C1CCCC1` gave a z-score of 0.116.

In turn, `CCOc1ccc(NC2c3ccccc3C(=O)N2Cc2ccco2)cc1` (centres undefined) came in with a z-score of -1.26. The value for `COc1ccc(CCNC(=O)C(=O)NCC2CCCO2)cc1` (centres undefined) was -0.148; that for `COc1ccc(N(CC(=O)NCc2ccccc2)S(=O)(=O)c2c(C)nn(C)c2C)cc1` was -0.684. Compound `CCNc1nc(NC(C)C)nc(N(C#N)CCOc2ccccc2)n1` showed a z-score of -1.35. The value for `COC(=O)COc1ccccc1C(=O)Nc1ccc(OC)cc1` was -0.266; that for `CNC(=O)Nc1ccc2snnc2c1` was 0.0826. The value for `CC1CN(C(=O)c2ccccc2NS(=O)(=O)c2cccc([N+](=O)[O-])c2)CC(C)O1` (centres undefined) was 0.672; that for `Cc1ccc(CC2C(=O)N(CC(=O)O)C(=O)C2C)cc1` (centres undefined) was -0.277. Compound `Clc1ccc(-c2csc(N/N=C/c3ccc4c(c3)OCO4)n2)cc1` gave a z-score of -0.152. Consider `Cc1ccc(C)n1-c1sccc1C(=O)O`, for which the z-score is 0.121.

As to `NC(=O)c1ccsc1NC(=O)CSc1ccccc1F`, the z-score worked out at 0.571. `CC1CCCCN1C(=S)NCc1ccccc1` (centres undefined) gave a z-score of -0.00966. `CN(C)C(=O)Cn1c(SCC(=O)Nc2ccc3c(c2)OCO3)nc2ccccc21`: the z-score is -0.277. The value for `N#Cc1cc2ccccc2nc1SCC(=O)Nc1ccccc1N1CCOCC1` was 0.286; that for `Cc1ccc(C(=O)N[C@H](C(=O)OCc2cc(=O)oc3cc(C)ccc23)C(C)C)cc1` was -0.0948.

The compound `O=S(=O)(c1ccc(S(=O)(=O)N2CCCC2)cc1)N1CCCCCC1` returned a z-score of 0.224. Then `O=C(COC(=O)/C=C/c1cccc(C(F)(F)F)c1)Nc1cccc2ccccc12`, with -0.0579. The value for `CC(C)N(Cc1nc(-c2ccccc2)no1)C(=O)COc1ccccc1` was -0.0374; that for `CCOc1ccc(Oc2ccc(-c3nnc(-c4ccccc4)o3)cc2[N+](=O)[O-])cc1` was 0.352; that for `CN(C1=C(N2CCCCC2)C(=O)c2ccccc2C1=O)c1ccccc1` was -0.138. In turn, `CN(C)/C(=N\OC(=O)c1ccccc1)c1nonc1N` returned a z-score of -0.235. The value for `Cn1c(SCC(=O)c2ccc3c(c2)OCCO3)nnc1C1CC1` was -0.0904; that for `Nc1ccccc1Nc1cc(-c2ccccc2)nn1-c1ccccc1` was -0.185. As for `N#C/C(=C\c1cn(CC(=O)N2CCCCC2)c2ccccc12)C(=O)NCc1ccc2c(c1)OCO2`, the z-score is -0.175. The value for `COC(=O)c1c(NC(=O)c2c(-c3ccccc3Cl)noc2C)sc2c1CCC2` was -0.159; that for `Cc1ccccc1OCCCCn1cnc2ccccc21` was -0.53. In turn, `OCCN1CCN(C(=S)c2ccc(Cl)c(Cl)c2)CC1` registered a z-score of 0.482.
